Experimental data taken from the supplement of paper PMC8728848.
This is one part of the list.

Assays:
Test in all cases: glycan array binding signal (z-score within array); higher = stronger binding
Details in all cases: glycan notation: IUPAC condensed, linker removed
[1] = target: Neu5Ac(a2-6)Gal(b1-4)GlcNAc(b1-2)Man(a1-6)Man(b1-4)GlcNAc(b1-4)GlcNAc
How it was run: (§1)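 Glycan array data were curated from 3228 arrays in the Consortium for Functional Glycomics database and kept only where the protein sequence was available. Glycan names were converted to IUPAC-condensed notation, and columns mapping to the same glycan were averaged. The binding signal is a within-array Z-score, averaged across arrays of the same protein sequence at different concentrations or buffers and across linkers. Negative Z-scores can be read as non-binding.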

[2] = target: Neu5Ac(a2-6)Gal(b1-4)GlcNAc(b1-2)Man(a1-6)[Gal(b1-4)GlcNAc(b1-2)Man(a1-3)]Man(b1-4)GlcNAc(b1-4)GlcNAc
How it was run: as §1

[3] = target: Neu5Ac(a2-6)Gal(b1-4)GlcNAc(b1-2)Man(a1-6)[GlcNAc(b1-2)Man(a1-3)]Man(b1-4)GlcNAc(b1-4)GlcNAc
How it was run: as §1

[4] = target: Neu5Ac(a2-6)Gal(b1-4)GlcNAc(b1-2)Man(a1-6)[Man(a1-3)]Man(b1-4)GlcNAc(b1-4)GlcNAc
How it was run: as §1

[5] = target: Neu5Ac(a2-6)Gal(b1-4)GlcNAc(b1-2)[Neu5Ac(a2-3)Gal(b1-4)GlcNAc(b1-4)]Man(a1-3)[Neu5Ac(a2-3)Gal(b1-4)GlcNAc(b1-2)Man(a1-6)]Man(b1-4)GlcNAc(b1-4)GlcNAc
How it was run: as §1

[6] = target: Neu5Ac(a2-6)Gal(b1-4)GlcNAc(b1-2)[Neu5Ac(a2-6)Gal(b1-4)GlcNAc(b1-4)]Man(a1-3)[GlcNAc(b1-4)][Neu5Ac(a2-6)Gal(b1-4)GlcNAc(b1-2)[Neu5Ac(a2-6)Gal(b1-4)GlcNAc(b1-6)]Man(a1-6)]Man(b1-4)GlcNAc(b1-4)GlcNAc
How it was run: as §1

[7] = target: Neu5Ac(a2-6)Gal(b1-4)GlcNAc(b1-2)[Neu5Ac(a2-6)Gal(b1-4)GlcNAc(b1-4)]Man(a1-3)[GlcNAc(b1-4)][Neu5Ac(a2-6)Gal(b1-4)GlcNAc(b1-4)Man(a1-6)]Man(b1-4)GlcNAc(b1-4)GlcNAc
How it was run: as §1

[8] = target: Neu5Ac(a2-6)Gal(b1-4)GlcNAc(b1-2)[Neu5Ac(a2-6)Gal(b1-4)GlcNAc(b1-6)]Man(a1-6)[Neu5Ac(a2-6)Gal(b1-4)GlcNAc(b1-2)Man(a1-3)][GlcNAc(b1-4)]Man(b1-4)GlcNAc(b1-4)GlcNAc
How it was run: as §1

[9] = target: Neu5Ac(a2-6)Gal(b1-4)GlcNAc(b1-3)Gal(b1-3)GlcNAc
How it was run: as §1

[10] = target: Neu5Ac(a2-6)Gal(b1-4)GlcNAc(b1-3)Gal(b1-4)Glc
How it was run: as §1

[11] = target: Neu5Ac(a2-6)Gal(b1-4)GlcNAc(b1-3)Gal(b1-4)GlcNAc
How it was run: as §1

[12] = target: Neu5Ac(a2-6)Gal(b1-4)GlcNAc(b1-3)Gal(b1-4)GlcNAc(b1-2)Man(a1-3)[Neu5Ac(a2-6)Gal(b1-4)GlcNAc(b1-3)Gal(b1-4)GlcNAc(b1-2)Man(a1-6)]GalNAc
How it was run: as §1

[13] = target: Neu5Ac(a2-6)Gal(b1-4)GlcNAc(b1-3)Gal(b1-4)GlcNAc(b1-3)Gal(b1-4)GlcNAc
How it was run: as §1

[14] = target: Neu5Ac(a2-6)Gal(b1-4)GlcNAc(b1-3)Gal(b1-4)GlcNAc(b1-3)Gal(b1-4)GlcNAc(b1-2)Man(a1-3)[Neu5Ac(a2-6)Gal(b1-4)GlcNAc(b1-3)Gal(b1-4)GlcNAc(b1-3)Gal(b1-4)GlcNAc(b1-2)Man(a1-6)]GalNAc
How it was run: as §1

[15] = target: Neu5Ac(a2-6)Gal(b1-4)GlcNAc(b1-3)Gal(b1-4)GlcNAc(b1-3)GalNAc
How it was run: as §1

[16] = target: Neu5Ac(a2-6)Gal(b1-4)GlcNAc(b1-3)Gal(b1-4)GlcNAc(b1-3)[Neu5Ac(a2-6)Gal(b1-4)GlcNAc(b1-3)Gal(b1-4)GlcNAc(b1-6)]GalNAc
How it was run: as §1

[17] = target: Neu5Ac(a2-6)Gal(b1-4)GlcNAc(b1-3)Gal(b1-4)GlcNAc(b1-6)[Gal(b1-3)]GalNAc
How it was run: as §1

[18] = target: Neu5Ac(a2-6)Gal(b1-4)GlcNAc(b1-3)Gal(b1-4)[Fuc(a1-3)]Glc
How it was run: as §1

[19] = target: Neu5Ac(a2-6)Gal(b1-4)GlcNAc(b1-3)Gal(b1-4)[Fuc(a1-3)]GlcNAc(b1-3)Gal(b1-4)[Fuc(a1-3)]GlcNAc
How it was run: as §1

[20] = target: Neu5Ac(a2-6)Gal(b1-4)GlcNAc(b1-3)GalNAc
How it was run: as §1

[21] = target: Neu5Ac(a2-6)Gal(b1-4)GlcNAc(b1-3)[Neu5Ac(a2-6)Gal(b1-4)GlcNAc(b1-6)]Gal(b1-4)Glc
How it was run: as §1

[22] = target: Neu5Ac(a2-6)Gal(b1-4)GlcNAc(b1-3)[Neu5Ac(a2-6)Gal(b1-4)GlcNAc(b1-6)]GalNAc
How it was run: as §1

[23] = target: Neu5Ac(a2-6)Gal(b1-4)GlcNAc(b1-6)GalNAc
How it was run: as §1

[24] = target: Neu5Ac(a2-6)Gal(b1-4)GlcNAc(b1-6)[Gal(b1-3)GlcNAc(b1-3)]Gal(b1-4)Glc
How it was run: as §1

[25] = target: Neu5Ac(a2-6)Gal(b1-4)GlcNAc(b1-6)[Gal(b1-3)]GalNAc
How it was run: as §1

[26] = target: Neu5Ac(a2-6)Gal(b1-4)GlcNAc6S
How it was run: as §1

[27] = target: Neu5Ac(a2-6)Gal(b1-4)[Fuc(a1-3)]GlcNAc(b1-3)Gal(b1-4)Glc
How it was run: as §1

[28] = target: Neu5Ac(a2-6)Gal(b1-6)GalNAc(b1-4)Gal(b1-4)Glc
How it was run: as §1

Neu5Ac(a2-6)Gal6S = target: Neu5Ac(a2-6)Gal6S
How it was run: as §1

[29] = target: Neu5Ac(a2-6)Gal6S(b1-4)Glc
How it was run: as §1

[30] = target: Neu5Ac(a2-6)Gal6S(b1-4)Glc4S
How it was run: as §1

Neu5Ac(a2-6)GalNAc = target: Neu5Ac(a2-6)GalNAc
How it was run: as §1

[31] = target: Neu5Ac(a2-6)GalNAc(b1-4)GlcNAc
How it was run: as §1

[32] = target: Neu5Ac(a2-6)GalNAc(b1-4)GlcNAc6S
How it was run: as §1

Neu5Ac(a2-6)Glc = target: Neu5Ac(a2-6)Glc
How it was run: as §1

Neu5Ac(a2-6)Glc6S = target: Neu5Ac(a2-6)Glc6S
How it was run: as §1

Neu5Ac(a2-6)GlcNAc = target: Neu5Ac(a2-6)GlcNAc
How it was run: as §1

[33] = target: Neu5Ac(a2-6)GlcNAc(b1-4)GlcNAc
How it was run: as §1

[34] = target: Neu5Ac(a2-6)GlcNAc(b1-4)GlcNAc(b1-4)GlcNAc
How it was run: as §1

Neu5Ac(a2-6)GlcNAc6S = target: Neu5Ac(a2-6)GlcNAc6S
How it was run: as §1

Neu5Ac(a2-8)Neu5Ac = target: Neu5Ac(a2-8)Neu5Ac
How it was run: as §1

[35] = target: Neu5Ac(a2-8)Neu5Ac(a2-3)Gal
How it was run: as §1

[36] = target: Neu5Ac(a2-8)Neu5Ac(a2-3)Gal(b1-3)GalNAc(b1-4)[Neu5Ac(a2-3)]Gal(b1-4)Glc
How it was run: as §1

[37] = target: Neu5Ac(a2-8)Neu5Ac(a2-3)Gal(b1-3)GalNAc(b1-4)[Neu5Ac(a2-8)Neu5Ac(a2-3)]Gal(b1-4)Glc
How it was run: as §1

[38] = target: Neu5Ac(a2-8)Neu5Ac(a2-3)Gal(b1-4)Glc
How it was run: as §1

B1: PNA (Arachis hypogaea), P02872 (protein)
chain: MKPFCVFLTFFLLLAASSKKVDSAETVSFNFNSFSEGNPAINFQGDVTVLSNGNIQLTNLNKVNSVGRVLYAMPVRIWSSATGNVASFLTSFSFEMKDIKDYDPADGIIFFIAPEDTQIPAGSIGGGTLGVSDTKGAGHFVGVEFDTYSNSEYNDPPTDHVGIDVNSVDSVKTVPWNSVSGAVVKVTVIYDSSTKTLSVAVTNDNGDITTIAQVVDLKAKLPERVKFGFSASGSLGGRQIHLIRSWSFTSTLITTTRRSIDNNEKKIMNMASA
With B1 the “glycan array binding signal (z-score)” value [1] was -0.197, the “glycan array binding signal (z-score)” value [2] was -0.226 and the “glycan array binding signal (z-score)” value [3] was -0.155. For the same binder, the “glycan array binding signal (z-score)” value [4] was -0.19, the “glycan array binding signal (z-score)” value [5] was -0.195 and the “glycan array binding signal (z-score)” value [6] was -0.219. The “glycan array binding signal (z-score)” value [7] was -0.265, the “glycan array binding signal (z-score)” value [8] was -0.364 and the “glycan array binding signal (z-score)” value [9] was -0.109. For the same binder, the “glycan array binding signal (z-score)” value [10] was -0.195, the “glycan array binding signal (z-score)” value [11] was -0.084 and the “glycan array binding signal (z-score)” value [12] was -0.083. The “glycan array binding signal (z-score)” value [13] was -0.114, the “glycan array binding signal (z-score)” value [14] was 0.362 and the “glycan array binding signal (z-score)” value [15] was -0.158. The “glycan array binding signal (z-score)” value [16] was 0.626, the “glycan array binding signal (z-score)” value [17] was 0.977 and the “glycan array binding signal (z-score)” value [18] was -0.195. For the same binder, the “glycan array binding signal (z-score)” value [19] was -0.073, the “glycan array binding signal (z-score)” value [20] was -0.192 and the “glycan array binding signal (z-score)” value [21] was -0.195. For the same binder, the “glycan array binding signal (z-score)” value [22] was -0.304, the “glycan array binding signal (z-score)” value [23] was -0.286 and the “glycan array binding signal (z-score)” value [24] was -0.158. For the same binder, the “glycan array binding signal (z-score)” value [25] was 0.889, the “glycan array binding signal (z-score)” value [26] was -0.105 and the “glycan array binding signal (z-score)” value [27] was -0.195. For the same binder, the “glycan array binding signal (z-score)” value [28] was -0.195, the “glycan array binding signal (z-score)” value (Neu5Ac(a2-6)Gal6S) was -0.195 and the “glycan array binding signal (z-score)” value [29] was -0.195. The “glycan array binding signal (z-score)” value [30] was -0.195, the “glycan array binding signal (z-score)” value (Neu5Ac(a2-6)GalNAc) was -0.184 and the “glycan array binding signal (z-score)” value [31] was -0.205. The “glycan array binding signal (z-score)” value [32] was -0.311, the “glycan array binding signal (z-score)” value (Neu5Ac(a2-6)Glc) was -0.195 and the “glycan array binding signal (z-score)” value (Neu5Ac(a2-6)Glc6S) was -0.195. The “glycan array binding signal (z-score)” value (Neu5Ac(a2-6)GlcNAc) was -0.195, the “glycan array binding signal (z-score)” value [33] was -0.234 and the “glycan array binding signal (z-score)” value [34] was -0.123. The “glycan array binding signal (z-score)” value (Neu5Ac(a2-6)GlcNAc6S) was -0.195, the “glycan array binding signal (z-score)” value (Neu5Ac(a2-8)Neu5Ac) was -0.155 and the “glycan array binding signal (z-score)” value [35] was -0.195. The “glycan array binding signal (z-score)” value [36] was -0.283, the “glycan array binding signal (z-score)” value [37] was -0.238 and the “glycan array binding signal (z-score)” value [38] was -0.189.
